The supplement of paper PMC10600219
Several values for one entry are separate records, joined by “and”; a condition that tells them apart may be missing. Equal values may be shown once. Where a name gives a salt, the structure may show the parent alone. The full ranking holds about 2,800 compounds; the median of “cell viability relative to vehicle” is about 0.98, and the lowest 2% start at about 0.45. Some of the results follow.

What follows are compounds tested on NCI-H2228 alectinib-DTP (assay: cell viability relative to vehicle (fraction of vehicle); NCI-H2228 is an ALK-positive lung cancer line and DTP means drug-tolerant persister; higher = less growth inhibition). Conditions: 100 nM; treatment time 6 days.
Procedure, shortened: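 NCI-H2228 parental cells and drug-tolerant persister cells were plated in 384-well plates; the persisters had been generated with 1000 nM of a targeted drug over 13 days. One day later, the 3114-agent TargetMol anti-cancer compound library was added at 100 nM, with DMSO serving as vehicle. ATP was measured 6 days after that using the CellTiter-Glo 3D Cell Viability Assay. Values are cell viability expressed relative to vehicle-treated cells.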

SMILES | cell viability
Clc1ccc(COC(Cn2ccnc2)c2ccc(Cl)cc2Cl)cc1 (stereo not given) [Econazole] | 1.21
COc1cc2c(cc1OC)CN(CCc1ccc(NC(=O)c3cccc4c(=O)c5cccc(OC)c5[nH]c34)cc1)CC2 [Elacridar] | 1.01
CCN(CCCc1ccccc1)CCCc1ccccc1 [Alverine citrate] | 1.1
Cc1c(C)c2c(c(C)c1O)CC[C@@](C)(CCC[C@H](C)CCC[C@H](C)CCCC(C)C)O2 [Vitamin E] | 1.05
Cc1cc(CS(=O)(=O)c2ccccc2)cc(OCc2ccc(CN3CCC[C@@H]3CO)cc2)c1 | 0.965
CCc1cc(/C(C)=N/OCc2ccc(C3CCCCC3)c(C(F)(F)F)c2)ccc1CN1CC(C(=O)O)C1 [Siponimod] | 0.931
CC[C@]1(O)C[C@@H]2CN(CCc3c([nH]c4ccccc34)[C@@](C(=O)OC)(c3cc4c(cc3OC)N(C)[C@H]3[C@@](O)(C(=O)OC)[C@H](OC(C)=O)[C@]5(CC)C=CCN6CC[C@]43[C@@H]65)C2)C1 [Vinblastine sulfate] | 0.603
CC[C@H](CC[C@@H](C)[C@H]1CC[C@H]2[C@@H]3CC=C4C[C@@H](O[C@@H]5O[C@H](CO)[C@@H](O)[C@H](O)[C@H]5O)CC[C@]4(C)[C@H]3CC[C@]12C)C(C)C [Sitogluside] | 0.962
CCn1c(-c2nonc2N)nc2cnc(Oc3cccc(NC(=O)c4ccc(OCCN5CCOCC5)cc4)c3)cc21 | 1.4
CCN(CC)C(=O)N1CCN(C)CC1 [Diethylcarbamazine citrate] | 1.03
Cn1cnc(N)c2ncnc1-2 [3-Methyladenine] | 1.06
c1ccc2c(-c3cnn4cc(-c5ccc(N6CCNCC6)cc5)cnc34)ccnc2c1 | 1.26 and 1.18
CC(C)(Oc1ccc(C2CC2(Cl)Cl)cc1)C(=O)O (stereo not given) [Ciprofibrate] | 1.08
CC(C)C[C@H](NC(=O)c1cc2ccccc2s1)C(=O)N1CCN(C(=O)[C@H](CO)NS(=O)(=O)c2ccc(Cl)cc2Cl)CC1 | 0.955
COc1ccc(Br)cc1NC(=O)Nc1cccc2c1ccn2Cc1ccnc(N)c1 | 1.06
C=CCN1CCCC1CNC(=O)c1cc2nn[nH]c2cc1OC (stereo not given) [Alizapride hydrochloride] | 1.01
Cc1ccc(C)c(OCCn2cc(C(=O)O)c3ccccc32)c1 | 0.905
CC(C)c1onc(-c2c(Cl)cccc2Cl)c1COc1ccc(/C=C/c2cccc(C(=O)O)c2)c(Cl)c1 | 1.08
CO[C@@H](C)Cn1c(=O)n(C)c2cnc3ccc(-c4cncc(C(C)(C)O)c4)cc3c21 | 0.513
Nc1nc(Nc2ccc(S(N)(=O)=O)cc2)nn1C(=O)c1c(F)cccc1F | 1.03
CC1=C(C(=O)O)N2C(=O)[C@@H](NC(=O)[C@H](N)c3ccc(O)cc3)[C@H]2SC1 [Cefadroxil] | 1.04
N#CC(=C(/N)Sc1ccccc1N)/C(C#N)=C(\N)Sc1ccccc1N | 1.01
Cc1[nH]c(/C=C2\C(=O)Nc3ccc(S(=O)(=O)Cc4c(Cl)cccc4Cl)cc32)c(C)c1C(=O)N1CCC[C@@H]1CN1CCCC1 | 1
Cc1c(CC(=O)O)c2cccnc2n1Cc1ccc(S(C)(=O)=O)cc1C(F)(F)F [Fevipiprant] | 1.04
Nc1cc(F)ccc1NC(=O)c1ccc(CNC(=O)/C=C/c2cccnc2)cc1 [Chidamide] | 0.775
O=C(NCc1ccc(Oc2ccccc2)cc1)c1nc(-c2cc(Br)c(O)c(Br)c2)no1 | 0.819
Cc1c(Cn2c(C)nc3c(C(=O)O)cc(N4CCOCC4)cc32)cccc1C(F)(F)F | 0.959

SMILES | cell viability
CNC1(C)C2CCC(C2)C1(C)C (stereo not given) [Mecamylamine hydrochloride] | 0.868
NC(=O)c1cccnc1 [Nicotinamide] | 0.93
OCc1ccc(-c2nn(Cc3ccccc3)c3ccccc23)o1 [Lificiguat] | 1.1
CC(C)C[C@H](N)C(=O)O [L-Leucine] | 1.02
Cn1c(=O)c2c(ncn2CC(O)CO)n(C)c1=O (stereo not given) [Diprophylline] | 1.05
CCCc1nc(C(C)(C)O)c(C(=O)OCc2oc(=O)oc2C)n1Cc1ccc(-c2ccccc2-c2nnn[nH]2)cc1 [Olmesartan Medoxomil] | 1.06
NCc1c[nH]c(=S)n1[C@H]1CCc2c(F)cc(F)cc2C1 [Nepicastat HCl] | 1.04
O=C(O)CCc1nc2ccccc2[nH]1 [Procodazole] | 1.07
O=c1[nH]c(=O)n([C@H]2C[C@H](O)[C@@H](CO)O2)cc1/C=C/Br [Brivudine] | 1.04
COc1ccc(-c2cc3c(C)nc(N)nc3n([C@H]3CC[C@H](OCCO)CC3)c2=O)cn1 | 0.398
COC(=O)c1c2c(c3ccccc3c1O)OC(C)(C)C=C2 [Mollugin] | 1.05
NCCNc1ccc(NCCN)c2c1C(=O)c1ccncc1C2=O [Pixantrone dimaleate] | 0.661
COc1ccc(/C=C/C(=O)C2(C(=O)/C=C/c3ccc(OC)c(OC)c3)CCCCC2)cc1OC | 1.02
Cn1c(=O)c(F)c(Nc2ccc(I)cc2F)c2c(=O)n(C[C@@H](O)CO)cnc21 | 0.77
CCOC(=O)c1ccc(C#Cc2ccc3c(c2)C(C)(C)CCS3)nc1 [Tazarotene] | 0.714
CC(C)(C)C#Cc1cc(N(C(=O)[C@H]2CC[C@H](C)CC2)[C@H]2CC[C@H](O)CC2)c(C(=O)O)s1 [Lomibuvir] | 1.06
Oc1ccc(-c2cc(=S)ss2)cc1 [Desmethylanethol trithione] | 0.964
CCCOc1ccc(CCc2nc3cc(-c4c(C)noc4C)ccc3n2CCN2CCOCC2)cc1 [PF-CBP1 hydrochloride] | 1.07
O=C(O)/C=C/c1ccccc1 [Cinnamic acid] | 1.22
CC(C)=C1CC[C@@H](C)CC1=O [Pulegone] | 1.12
COc1cc2ncnc(Nc3ccc(Oc4ccccc4)cc3)c2cc1OC [Src Inhibitor 1] | 0.933
Nc1ccc(S(N)(=O)=O)cc1 [Sulfanilamide] | 1.05
O=C(COCC(=O)N1CCN(C(c2ccccc2)c2ccccc2)CC1)Nc1ccc(Cl)cc1C(=O)O [TM5275 sodium] | 1.08
Cc1ccc(NC(=S)NNc2c([N+](=O)[O-])cc(C(F)(F)F)cc2[N+](=O)[O-])cc1Cl | 0.982
COc1c(O)cc(O)c2c(=O)cc(-c3ccccc3)oc12 [Wogonin] | 0.937
CCOc1nc2cccc(C(=O)OC(C)OC(=O)OC3CCCCC3)c2n1Cc1ccc(-c2ccccc2-c2nn[nH]n2)cc1 (stereo not given) [Candesartan Cilexetil] | 0.839
COc1ccc(-c2oc3c(CC=C(C)C)c(O)cc(O)c3c(=O)c2O)cc1 [Icaritin] | 1.05

SMILES | cell viability
O=C(CCN1CCN(C(=O)OCc2cc(Cl)cc(Cl)c2)CC1)c1ccc2[nH]c(=O)oc2c1 | 1.12
COc1cc2c(cc1OC)-c1cc3nc4ccccc4nc3n1C(C)(C)C2 | 1.02
COc1ccccc1OCCNCC(O)COc1cccc2[nH]c3ccccc3c12 (stereo not given) [Carvedilol] | 1.03
COc1ccccc1OCCNCC(O)COc1cccc2[nH]c3ccccc3c12 (stereo not given) [Carvedilol phosphate] | 0.976
COc1ccc(CCCOC(Cn2ccnc2)c2ccc(OC)cc2)cc1 (stereo not given) | 1.26
COc1cc(-c2nc3ccccc3s2)ccc1O | 1.01
C[C@H]1CC[C@@]2(OC1)O[C@H]1C[C@H]3[C@@H]4CC[C@@H]5C[C@@H](O[C@@H]6O[C@H](CO)[C@H](O)[C@H](O)[C@H]6O[C@@H]6O[C@H](CO)[C@@H](O)[C@H](O)[C@H]6O)CC[C@]5(C)[C@H]4CC[C@]3(C)[C@H]1[C@@H]2C [Timosaponin AIII] | 1.1
COc1ccc(C(C)=O)c(O)c1 [Paeonol] | 1.21
COc1ccc(-n2nc(C(N)=O)c3c2C(=O)N(c2ccc(N4CCCCC4=O)cc2)CC3)cc1 [Apixaban] | 0.853
Nc1cccc(-c2cc3c(Oc4cccc(O)c4)ncnc3[nH]2)c1 | 0.969
CC(C)[C@H]1CC[C@H](C(=O)N[C@H](Cc2ccccc2)C(=O)O)CC1 [Nateglinide] | 0.92
COc1c(O)cc2c(c1O)[C@@H]1O[C@H](CO)[C@@H](O)[C@H](O)[C@H]1OC2=O [Bengenin] | 1.23
COc1cc(N2CCC(N3CCN(C)CC3)CC2)ccc1Nc1ncc(Cl)c(Nc2ccccc2S(=O)(=O)C(C)C)n1 | 0.942
CC1CCc2cc(F)cc3c(=O)c(C(=O)O)cn1c23 (stereo not given) [Flumequine] | 1
CCN1CCCC1CNC(=O)c1cc(S(=O)(=O)CC)c(N)cc1OC (stereo not given) [Amisulpride] | 0.952
CCCS(=O)(=O)Nc1ccc(F)c(C(=O)c2c[nH]c3ncc(Cl)cc23)c1F | 0.899
CNC(=O)CN1CCC(Oc2cc3c(Nc4cccc(Cl)c4F)ncnc3cc2OC)CC1 [Sapitinib] | 0.759
COc1ccc2cc(Br)ccc2c1 [2-Bromo-6-methoxynaphthalene] | 1.2
O=C(Nc1cc(Cl)cc2c1[nH]c1cnccc12)c1cccnc1 | 1.1
c1cnc(NCc2ccc(CNc3ncccn3)cc2)nc1 | 0.914
S=P(N1CC1)(N1CC1)N1CC1 [Triethylenethiophosphoramide] | 1
CN1CCN(c2ccc(C(=O)Nc3n[nH]c4ccc(Cc5cc(F)cc(F)c5)cc34)c(NC3CCOCC3)c2)CC1 [Entrectinib] | 0.927
Clc1ccc2c(NCCNc3ccnc4cc(Cl)ccc34)ccnc2c1 | 0.949
CN(C)c1ccc(C2Nc3ccc4ccccc4c3C3=C2C(=O)CC(C)(C)C3)cc1Br (stereo not given) [Glutaminase C-IN-1] | 0.965
COc1ccc(-c2oc3cc(OC)c(OC)c(O)c3c(=O)c2OC)cc1O [Vitexicarpin] | 1.09
CC(C)C(C(=O)O)N1C(=O)C(=Cc2ccc(Br)cc2)SC1=S (stereo not given) | 1.06
